# Assay results from PubChem BioAssay.
# This list was built around the results that the source calls inconclusive (neither active nor inactive); the mix of calls is not that of the screen. Calls of active or inactive are those of the source.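 The calls were made as follows: active = fitted half-maximal concentration for viability loss no higher than twice the top valid dose, in every repeat run; inconclusive = repeat runs disagree, flat partial loss, or poor curve fit; inactive = the rest.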
# Test: IOSE-T80 viability loss, PAX8-independent line – cell-based, cherry-pick, selectivity assay for PAX8 inhibitor project, dose response (AID 687032);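 also: cells exposed to compound for 96 h before reading; 0% = neutral control wells and -100% = 2 µM mitoxantrone kill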
# Details: CellTiterGlo ATP luminescence, 96 h; at 35 µM (top of the series)
row,Compound,"activity change, negative = viability loss"
1,CN(C)CC(C(=O)Cc1ccccc1)c1ccccc1 (centres undefined),inconclusive: 21.1%
2,COc1ccc(C(c2nnnn2Cc2ccccc2)N2CCC(n3c(=O)[nH]c4ccccc43)CC2)cc1 (centres undefined),inconclusive: 13.2%
3,CCCCCCCCCCCCn1ccc(=N)cc1,inconclusive: 23.1%
4,O=c1[nH]c2ccccc2n1C1CCN(C(c2ccccc2OC(F)(F)F)c2nnnn2-c2ccc3c(c2)OCCO3)CC1 (centres undefined),inconclusive: 6.7%
5,CCC(C)C1NC(=O)C(NC(=O)C(CC(C)C)N(C)C(=O)C2CCCN2C(=O)C(C)O)C(C)OC(=O)C(Cc2ccc(OC)cc2)N(C)C(=O)C2CCCN2C(=O)C(CC(C)C)NC(=O)[C@H](C)C(=O)[C@H](C(C)C)OC(=O)CC1O (some centres undefined),inconclusive: -0.103%
6,CSCCC(c1nnnn1Cc1ccccc1)N1CCC(n2c(=O)[nH]c3ccccc32)CC1 (centres undefined),inconclusive: 13.2%
7,CCCCN=C[C@]12CCC(O)CC1(O)CCC1[C@@H]2CC[C@]2(C)[C@H](C3C=CC(=O)O3)CCC12O (some centres undefined),inconclusive: 5.96%
8,NC(=S)c1cn(C2OC(CO)C(O)C2O)c2ncnc(N)c12 (centres undefined),inconclusive: 14.2%
9,O=c1[nH]c2ccccc2n1C1CCN(C(c2cc3ccccc3o2)c2nnnn2-c2ccc3c(c2)OCCO3)CC1 (centres undefined),inconclusive: 0.552%
10,COC1C(O)C(C)OC(OC2CCC3(C)C(CCC4C3C(O)CC3(C)C(C5=CC(=O)OC5)CCC43O)C2)C1O (centres undefined),inactive: 1.8%
11,O=C(Cc1ccccn1)N1CCCCN2[C@@H](CO)[C@@H](c3ccc(-c4ccc(F)cc4)cc3)[C@@H]2C1,inactive: 35.7%
12,COC(=O)C1=C(c2ccc(F)cc2OCc2ccccc2)C[C@@H]2CC[C@H]1N2C(=O)NC1Cc2ccccc2C1,inactive: 16.5%
13,CC(=O)OC(C)(C)/C=C/C(=O)C(C)(O)C1[C@H](O)C[C@@]2(C)C3CC=C4C(CC[C@@H](O)C4(C)C)[C@]3(CO)C(=O)C[C@]12C (some centres undefined),inconclusive: 11.2%
14,Cc1ccc(C(=O)N[C@@H](C)CN2C3=NC[C@@H](Cc4ccccc4)N3C[C@H]2Cc2ccc(O)cc2)cc1Br,inconclusive: 10.2%
15,O=c1[nH]c2ccccc2n1C1CCN(C(c2cccs2)c2nnnn2-c2ccc3c(c2)OCCO3)CC1 (centres undefined),inconclusive: 4.21%
16,CC(=O)OC1CC(OC2C(O)CC(OC3C(O)CC(OC4CCC5(C)C(CCC6C5CC(O)C5(C)C(C7=CC(=O)OC7)CCC65O)C4)OC3C)OC2C)OC(C)C1OC1OC(CO)C(O)C(O)C1O (centres undefined),inconclusive: 16.6%
17,N#CC(C#N)=NNc1ccc(-n2ccc(C(F)(F)F)n2)cc1,inconclusive: 9.14%
18,CC1CC(C)CC(C)C(O)C(C#N)=CC=CCC(C2CCCC2C(=O)O)OC(=O)CC(O)C(C)C1 (centres undefined),inconclusive: 16.2%
19,COc1ccc(-c2ccc([C@@H]3[C@@H](CO)N4CCCCN(C(=O)Cc5ccccc5)C[C@H]34)cc2)cc1,inconclusive: -0.876%
20,CC1CC(C)(O)CC(C(O)CC2CC(=O)NC(=O)C2)C1=O (centres undefined),inconclusive: -1.6%
21,COC(=O)C1=C(C(=O)OC)C2OC1c1cc3ccccc3cc12,inactive: 0.632%
22,C[C@]12CC[C@H](O)C[C@H]1CC[C@@H]1[C@@H]2CC[C@]2(C)[C@@H](C3=CC(=O)OC3)CC[C@]12O,inconclusive: 0.558%
23,C[C@]12CC[C@H]3[C@@H](CC[C@]4(O)C[C@@H](O)CC[C@]34C=O)[C@@]1(O)CC[C@@H]2C1=CC(=O)OC1,inconclusive: -6.85%
24,Cc1c(C(=O)c2cccc3ccccc23)c2cccc3c2n1[C@H](CN1CCOCC1)CO3,inconclusive: -32.7%
25,O=C1NC2C(=CC(O)C(O)C2O)c2cc3c(cc21)OCO3 (centres undefined),inconclusive: 2.31%
26,COC1CC2C=C(C)C=CC=CC(=O)NC(c3ccccc3)CC=CCCC(O)CC(=O)C2=C1O (centres undefined),inconclusive: 13%
27,CCCc1nc2ccc(Br)cc2c(=O)n1-c1ccc([N+](=O)[O-])c(C(F)(F)F)c1,inactive: 0.924%
28,COc1ccc(C[C@H]2NC[C@H](O)[C@H]2OC(C)=O)cc1,inconclusive: 8.18%
29,CCn1nc(/C=C/c2ccccc2)nc2c(=O)n(C)c(=O)nc1-2,inconclusive: 14.9%
